# Source: PubChem BioAssay (NCATS)
# Several values for one entry are separate records, joined by “and”; a condition that tells them apart may be missing. Equal values may be shown once. This list was built around the results that the source calls inconclusive (neither active nor inactive); the mix of calls is not that of the screen. For part of these data: Potencies of inconclusive entries are doubtful fits and often do not repeat. Activity calls are given as the source filed them. Unless noted, the call rests on the fitted dose curve; in most records, active means well fitted curve in the direction sought with a large enough effect; inconclusive means small, poorly fitted or top-dose-only effect, or another doubt; inactive means no such curve, though single readings can be large; an effect the other way counts as inactive or inconclusive.
# Key:
# [1] = qHTS to identify inhibitors of the type 1 interferon - major histocompatibility complex class I in skeletal muscle: primary screen against the NCATS Mechanism Interrogation Plate v5.0 (MIPE) Libary (AID 1347411); conditions: iHSKM cells + IFN-b, HiBiT-tagged MHC-I luminescence, 24 h; activity change, negative = inhibition: at 45.8 µM (top of the series); further: nearly all actives have a fitted effect of over 65% in size; further: potency means the concentration at half of the fitted maximal effect;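 on activity change, negative = inhibition: plate controls were vehicle for no effect and reference inhibitor for full effect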
# How it was run: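 HLA-B HiBit myoblasts, dexamethasone-free medium + 4 ng/ml IFN-b, 24 h compound, 11-pt 1:3 from 46 uM final. Readout: Nano-Glo HiBiT lytic luminescence after 10 min lysis, RT.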
# [2] = Primary qHTS for small molecule stabilizers of the endoplasmic reticulum resident proteome: Secreted ER Calcium Modulated Protein (SERCaMP) assay (AID 1508630); conditions: SH-SY5Y GLuc-SERCaMP (Gaussia luciferase released on ER calcium loss) secretion, thapsigargin, luminescence; activity change, negative = inhibition: at 38.4 µM (top of the series); further: potency means the concentration at half of the fitted maximal effect; on activity change, negative = inhibition: on the % scale 0 is the no-effect control and ±100 the full control effect
# How it was run: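 The SH-SY5Y reporter protocol was run at 3 concentrations up to 38.3 uM (primary) or 11 concentrations (follow-up): 16 h compound, 100 nM thapsigargin for 4 h, then extracellular luciferase luminescence.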
# Papain (Carica papaya) = Papain (Carica papaya) (UniProt P00784); test: Primary qHTS assay for inhibitors of the protease papain (AID 1645873);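 further: papain turnover of Z-FR-AMC read as the AMC fluorescence gain over 10 min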; further: potency means the concentration at half of the fitted maximal effect
# UniProt P00784, sequence (P00784 whole entry, looked up): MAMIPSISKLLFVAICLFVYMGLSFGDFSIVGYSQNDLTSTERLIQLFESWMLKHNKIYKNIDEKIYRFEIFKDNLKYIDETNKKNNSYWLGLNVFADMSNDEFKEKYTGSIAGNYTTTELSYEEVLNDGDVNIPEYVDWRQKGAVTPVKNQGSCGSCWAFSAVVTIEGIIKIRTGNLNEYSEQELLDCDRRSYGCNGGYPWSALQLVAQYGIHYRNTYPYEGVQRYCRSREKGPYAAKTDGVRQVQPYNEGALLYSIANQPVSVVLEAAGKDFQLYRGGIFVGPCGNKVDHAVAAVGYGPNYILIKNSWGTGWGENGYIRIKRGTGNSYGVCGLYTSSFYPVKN
# [3] = target: Cytochrome P450 2D6 (Homo sapiens) (UniProt P10635); test: Cytochrome P450 family 2 subfamily D member 6 (CYP2D6) small molecule antagonists: luciferase biochemical (cell-free) qHTS assay (AID 1645840; active means well fitted curve in the direction sought with a large enough effect in the repeat runs; inconclusive means weak or mixed curves; inactive means no such curve, though single readings can be large; an effect the other way counts as inactive or inconclusive; further: nearly all actives have a fitted effect of over 55% in size; further: potency means the concentration at half of the fitted maximal effect)
# UniProt P10635, sequence (P10635 whole entry, looked up): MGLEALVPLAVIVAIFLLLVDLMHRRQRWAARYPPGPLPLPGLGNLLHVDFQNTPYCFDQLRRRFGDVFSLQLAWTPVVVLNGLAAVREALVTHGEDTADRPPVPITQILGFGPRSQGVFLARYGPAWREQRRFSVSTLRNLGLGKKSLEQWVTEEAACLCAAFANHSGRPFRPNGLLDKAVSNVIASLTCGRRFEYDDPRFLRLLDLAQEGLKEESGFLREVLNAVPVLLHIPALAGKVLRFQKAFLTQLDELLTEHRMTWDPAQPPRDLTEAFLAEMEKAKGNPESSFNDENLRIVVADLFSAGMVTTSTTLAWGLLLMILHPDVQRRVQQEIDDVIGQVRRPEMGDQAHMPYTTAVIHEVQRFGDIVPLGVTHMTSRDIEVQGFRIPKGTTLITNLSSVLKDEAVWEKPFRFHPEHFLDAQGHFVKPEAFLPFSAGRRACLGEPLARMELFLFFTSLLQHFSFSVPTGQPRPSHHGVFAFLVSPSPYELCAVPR
# How it was run: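 P450-Glo CYP2D6 system: proluciferin substrate converted by enzyme to luciferin, read by luminescence proportional to activity. Enzyme-substrate mix with compound 10 min at room temperature, then NADPH regeneration 1 h before detection reagent.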
# [4] = target: Protein phosphatase 1D (Homo sapiens) (UniProt O15297); test: RapidFire Mass Spectrometry qHTS Assay for Modulators of WT P53-Induced Phosphatase 1 (WIP1) (AID 1347424); further: potency means the concentration at half of the fitted maximal effect;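 on activity change, negative = inhibition: plate controls were DMSO wells for no effect and GSK830371 inhibitor control at 10 µM for full effect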
# UniProt O15297, sequence (O15297 whole entry, looked up): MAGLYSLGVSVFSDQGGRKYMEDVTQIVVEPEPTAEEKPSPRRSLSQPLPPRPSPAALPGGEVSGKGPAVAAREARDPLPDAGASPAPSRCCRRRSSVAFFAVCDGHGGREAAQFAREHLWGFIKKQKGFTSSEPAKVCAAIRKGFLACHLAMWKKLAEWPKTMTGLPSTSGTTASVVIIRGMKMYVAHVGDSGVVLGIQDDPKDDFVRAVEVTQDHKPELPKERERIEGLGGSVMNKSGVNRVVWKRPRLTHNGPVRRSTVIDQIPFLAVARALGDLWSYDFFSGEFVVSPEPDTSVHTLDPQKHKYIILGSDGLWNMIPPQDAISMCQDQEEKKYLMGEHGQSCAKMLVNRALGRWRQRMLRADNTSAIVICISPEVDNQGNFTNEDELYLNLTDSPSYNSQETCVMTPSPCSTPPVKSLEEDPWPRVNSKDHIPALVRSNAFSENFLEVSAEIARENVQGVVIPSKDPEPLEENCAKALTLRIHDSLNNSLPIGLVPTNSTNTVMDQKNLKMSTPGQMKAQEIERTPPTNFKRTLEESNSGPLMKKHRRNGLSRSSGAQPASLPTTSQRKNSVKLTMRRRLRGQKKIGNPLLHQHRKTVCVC
# How it was run: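 RapidFire MS readout of dephosphorylated VEPPL-S-QETFS product, with 1 uM isotope-labelled peptide standard. Reaction: 10 nM WIP1, 2 uM phosphopeptide substrate, 5 min, room temperature, after 1 h compound preincubation; stopped with 0.5% formic acid.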
# [5] = target: Protein phosphatase 1D (Homo sapiens) (UniProt O15297); test: Rhodamine-PBP qHTS Assay for Modulators of WT P53-Induced Phosphatase 1 (WIP1) (AID 1347425); conditions: recombinant WIP1, Rhodamine-PBP phosphate fluorescence, real-time; further: potency means the concentration at half of the fitted maximal effect
# How it was run: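 The read-out is the change in Rhodamine-PBP fluorescence (f1 - f0, ex 525/em 598 nm) as Pi is released, read each minute for 11 min. Final reaction: 5 nM WIP1, 10 uM phosphopeptide VEPPL-pS-QETFS, 10 uM Rh-PBP, 50 mM Tris-HCl pH 7.5, 30 mM MgCl2. Compound was preincubated with enzyme for 1 hour at room temperature.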
# [6] = target: Single-stranded DNA cytosine deaminase (Homo sapiens) (UniProt Q9GZX7); test: Validation qHTS assay for inhibitors of Activation Induced Cytidine Deaminase (AID): AID signal (AID 1347429); further: on the % scale 0 is the no-effect control and ±100 the full control effect
# UniProt Q9GZX7, sequence (Q9GZX7 whole entry, looked up): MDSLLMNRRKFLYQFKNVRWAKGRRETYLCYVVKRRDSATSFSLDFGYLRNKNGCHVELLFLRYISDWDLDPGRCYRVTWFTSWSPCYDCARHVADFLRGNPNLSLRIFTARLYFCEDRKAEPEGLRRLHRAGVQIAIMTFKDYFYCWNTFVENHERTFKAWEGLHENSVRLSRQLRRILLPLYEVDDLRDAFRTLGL
# How it was run: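 AID+UDG coupled FRET deamination; cpds up to 114 uM final; DJC20/DJC23 substrate, 4 hr RT; NaOH stop, 30 min RT; read Ex 540/Em 590.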
# [7] = target: Cytochrome P450 3A4 (Homo sapiens) (UniProt P08684); test: Cytochrome P450 family 3 subfamily A member 4 (CYP3A4) small molecule antagonists: luciferase qHTS assay (AID 1645841; active means well fitted curve in the direction sought with a large enough effect in the repeat runs; inconclusive means weak or mixed curves; inactive means no such curve, though single readings can be large; an effect the other way counts as inactive or inconclusive; further: potency means the concentration at half of the fitted maximal effect; nearly all actives have a fitted effect of over 45% in size)
# UniProt P08684, sequence (P08684 whole entry, looked up): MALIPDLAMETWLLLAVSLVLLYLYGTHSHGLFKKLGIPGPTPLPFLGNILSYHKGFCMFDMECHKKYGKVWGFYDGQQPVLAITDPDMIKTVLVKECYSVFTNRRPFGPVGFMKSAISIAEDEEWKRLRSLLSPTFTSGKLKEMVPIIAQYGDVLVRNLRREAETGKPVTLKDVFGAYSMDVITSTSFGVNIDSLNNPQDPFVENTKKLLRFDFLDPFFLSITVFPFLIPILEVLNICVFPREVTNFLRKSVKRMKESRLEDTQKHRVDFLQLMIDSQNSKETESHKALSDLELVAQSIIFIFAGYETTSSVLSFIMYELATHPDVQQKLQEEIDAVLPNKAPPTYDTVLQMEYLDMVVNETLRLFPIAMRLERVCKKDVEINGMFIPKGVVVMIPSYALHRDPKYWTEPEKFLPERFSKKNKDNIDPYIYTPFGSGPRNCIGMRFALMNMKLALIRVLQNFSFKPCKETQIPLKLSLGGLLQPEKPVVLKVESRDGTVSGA
# How it was run: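 P450-Glo CYP3A4 enzyme with proluciferin substrate preincubated 10 min with compound at room temperature, then NADPH regeneration 1 h. Luciferin detection reagent added for 20 min; luminescence recorded. Ketoconazole positive control.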
# [8] = target: Cytochrome P450 2C9 (Homo sapiens) (UniProt P11712); test: Cytochrome P450 family 2 subfamily C member 9 (CYP2C9) small molecule antagonists: luciferase biochemical (cell-free) qHTS assay (AID 1645842; active means well fitted curve in the direction sought with a large enough effect in the repeat runs; inconclusive means weak or mixed curves; inactive means no such curve, though single readings can be large; an effect the other way counts as inactive or inconclusive; further: nearly all actives have a fitted effect of over 55% in size; further: potency means the concentration at half of the fitted maximal effect; on activity change, negative = inhibition: on the % scale 0 is the no-effect control and ±100 the full control effect)
# UniProt P11712, sequence (P11712 whole entry, looked up): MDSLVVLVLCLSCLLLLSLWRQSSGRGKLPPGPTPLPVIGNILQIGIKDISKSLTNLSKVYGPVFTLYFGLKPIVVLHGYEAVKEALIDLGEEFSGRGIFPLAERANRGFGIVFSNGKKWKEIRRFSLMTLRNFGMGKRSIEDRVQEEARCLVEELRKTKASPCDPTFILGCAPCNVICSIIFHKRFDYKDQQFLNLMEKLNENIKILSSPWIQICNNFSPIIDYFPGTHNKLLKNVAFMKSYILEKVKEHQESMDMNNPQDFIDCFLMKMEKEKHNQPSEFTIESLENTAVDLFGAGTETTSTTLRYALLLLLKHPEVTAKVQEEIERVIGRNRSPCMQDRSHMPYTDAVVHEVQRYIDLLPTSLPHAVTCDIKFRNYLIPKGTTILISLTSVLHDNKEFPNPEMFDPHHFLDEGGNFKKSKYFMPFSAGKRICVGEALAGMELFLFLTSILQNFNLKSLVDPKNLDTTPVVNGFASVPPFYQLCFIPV
# How it was run: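 P450-Glo CYP2C9 system: proluciferin substrate with enzyme in mix containing 0.4% BSA, 10 min at room temperature, then NADPH regeneration solution added and incubated 1 h at 37C. Detection reagent stopped reaction; luminescence read after 20 min as RLU.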
# [9] = Confirmatory qHTS for small molecule stabilizers of the endoplasmic reticulum resident proteome: Secreted ER Calcium Modulated Protein (SERCaMP) assay (AID 1508628); further: nearly all actives have a fitted effect of over 40% in size; further: potency means the concentration at half of the fitted maximal effect
# How it was run: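 GLuc-SERCaMP-expressing SH-SY5Y cells, pretreated 16 h with compound, are challenged with thapsigargin to empty ER calcium stores; after 4 h, coelenterazine is added directly to the medium and luminescence is imaged.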
# [10] = Cell Viability qHTS for small molecule stabilizers of the endoplasmic reticulum resident proteome (AID 1508629); conditions: cell viability counter-screen, 100 nM thapsigargin for final 4 h;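 further: compound exposure about 46 h in total before the viability read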; further: potency means the concentration at half of the fitted maximal effect
# [11] = Primary qHTS for inhibitors of La Crosse Virus (LACV) - induced cell death in SH-SY5Y cells (AID 1508616); further: potency means the concentration at half of the fitted maximal effect;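 on activity change: top concentration of the series differs between compounds; 0% = infected DMSO wells and 100% = uninfected DMSO wells; higher means more rescue of cells from virus-induced death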
# How it was run: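 Cytopathicity rescue screen: compounds pinned onto SH-SY5Y cells, which are then infected with LACV (MOI 0.01) and held 6 days at 37C. Percent activity is scaled between infected DMSO control and uninfected DMSO control.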
# [12] = target: Calcium and integrin-binding protein 1 (Homo sapiens) (UniProt Q99828); test: Validation qHTS for Identification of Calcium Integrin Binding protein 1 (CIB1) Competitor (AID 1508618); further: on the % scale 0 is the no-effect control and ±100 the full control effect
# UniProt Q99828, sequence (Q99828 whole entry, looked up): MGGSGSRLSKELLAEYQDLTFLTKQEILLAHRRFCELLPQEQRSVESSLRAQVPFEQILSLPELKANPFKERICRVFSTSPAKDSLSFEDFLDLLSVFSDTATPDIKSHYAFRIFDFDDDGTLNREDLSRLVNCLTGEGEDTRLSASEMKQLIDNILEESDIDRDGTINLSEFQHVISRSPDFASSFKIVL
# How it was run: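 CIB1-GST (1 uM final) incubated 15 min at room temperature with compounds (up to 114 uM), then FITC-labelled alphaIIb peptide (100 nM) added. FP read (Ex 480/Em 540) after 15 min, pH 7.4 buffer containing 5 mM CaCl2.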
# [13] = Counterscreen qHTS for small molecule stabilizers of the endoplasmic reticulum resident proteome: GLuc-NoTag assay (AID 1508627); further: potency means the concentration at half of the fitted maximal effect
# How it was run: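 Counterscreen line: SH-SY5Y-GLuc-NoTag. Seed, 5 h; compound, 19 h; thapsigargin 100 nM, 4 h; 37C/5% CO2. Readout: secreted GLuc luminescence, coelenterazine 0.07x final, no lysis.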
# [14] = target: Calcium and integrin-binding protein 1 (Homo sapiens) (UniProt Q99828); test: Primary qHTS for Identification of Calcium Integrin Binding Protein 1 (CIB1) Competitor (AID 1508620); further: potency means the concentration at half of the fitted maximal effect
# How it was run: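 Fluorescence polarization competition: GST-tagged CIB1 (1 uM final) preincubated with compound 15 min at room temperature, then FITC-labelled alphaIIb peptide (100 nM final) added. After 15 min at room temperature, polarization read at Ex 480/Em 540.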
# Tags describe the fitted curve by direction and shape.
smiles,measurement,setting,value
COc1cc2c(cc1OC)C1CC(=O)C(CC(C)C)CN1CC2 (stereo not drawn),Potency,[1],inactive
same,Potency,[2],inactive
same,Potency,Papain (Carica papaya),"inconclusive: 17.8 µM [inhibitor, single point]"
Oc1ccc([C@@H]2Oc3ccc(O)cc3[C@@H]3CCC[C@@H]32)cc1,Potency,[1],"inconclusive: 41.5 µM [inhibitor, single point]"
same,Potency,[2],inactive
same,Potency,[3],"inconclusive: 26.8 µM [inhibitor, single point]"
Cc1ccc(NC(=O)c2cccc(C(C)(C)C#N)c2)cc1Nc1ccc2ncn(C)c(=O)c2c1,"activity change, negative = inhibition",[1],inconclusive: -32.7% [inhibitor]
same,Potency,[3],active: 12 µM
CC[C@H](CC#N)OC(=O)N[C@@H](C)c1cccc(NC(=O)Nc2ccc(-c3cnco3)c(OC)c2)c1,Potency,[1],"inconclusive: 3.7 µM [inhibitor, full curve]"
same,Potency,[3],active: 0.338 µM
Cc1cnc(Nc2ccc(N3CCN(C)CC3)cc2)nc1Nc1cccc(S(=O)(=O)NC(C)(C)C)c1,Potency,[1],active: 11.7 µM
same,Potency,[3],"inconclusive: 15.1 µM [inhibitor, partial curve]"
CCN(C)C(=O)Oc1cccc([C@H](C)N(C)C)c1,Potency,[4],inactive
same,Potency,[2],"inconclusive: 5.01 µM [inhibitor, full curve, poor fit]"
same,Potency,[3],"inconclusive: 21.9 µM [inhibitor, single point]"
Cc1ccc(C(=O)Nc2ccc(CN3CCN(C)CC3)c(C(F)(F)F)c2)cc1C#Cc1cnc2cccnn12,Potency,[1],active: 4.15 µM
same,Potency,[3],active: 16.9 µM
COc1ccc2c(c1)c(CC(=O)O)c(C)n2C(=O)c1ccc(Cl)cc1,Potency,[4],"inconclusive: 44.7 µM [inhibitor, single point]"
same,Potency,[5],"inconclusive: 10 µM [inhibitor, partial curve, poor fit]"
same,Potency,[6],inactive
same,Potency,[7],"inconclusive: 19.5 µM [falling, single point]"
CC(=O)c1c(C)c2cnc(Nc3ccc(N4CCNCC4)cn3)nc2n(C2CCCC2)c1=O,Potency,[1],active: 14.7 µM
same,Potency,[2],active: 5.95 µM
same,Potency,[8],inactive
COc1ccc(CCN(C)CCCC(C#N)(c2ccc(OC)c(OC)c2)C(C)C)cc1OC (stereo not drawn),Potency,[9],"inconclusive: 15.8 µM [inhibitor, full curve, poor fit]"
same,Potency,[10],"inconclusive: 15.8 µM [cytotoxic, partial curve]"
same,max response,[10],inactive: -5.84%
same,Potency,[2],"inconclusive: 10 µM [inhibitor, partial curve, poor fit] [middle of 4 runs]"
C[C@H]1O[C@@H](n2cc(F)c(=O)[nH]c2=O)[C@H](O)[C@H]1O,Potency,[11],"inconclusive: 3.16 µM [inhibitor, partial curve, poor fit]"
CCc1c2c(nc3ccc(OC(=O)N4CCC(N5CCCCC5)CC4)cc13)-c1cc3c(c(=O)n1C2)COC(=O)[C@]3(O)CC,Potency,[11],"inconclusive: 1.41 µM [inhibitor, partial curve, poor fit]"
same,Potency,[3],inactive
CCc1cccc2c3c([nH]c12)C(CC)(CC(=O)O)OCC3 (stereo not drawn),Potency,[12],inactive
same,Potency,[2],"inactive and inconclusive: 2 µM [inhibitor, full curve, poor fit]"
same,Potency,[3],"inconclusive: 43.6 µM [inhibitor, partial curve, poor fit]"
Nc1ncn([C@H]2C[C@H](O)[C@@H](CO)O2)c(=O)n1,Potency,[11],"inconclusive: 0.501 µM [inhibitor, full curve, poor fit]"
same,Potency,[2],"inactive and inconclusive: 421 nM [inhibitor, full curve, poor fit]"
CN(C)CCCN1c2ccccc2CCc2ccc(Cl)cc21,Potency,[13],"inconclusive: 11.2 µM [inhibitor, partial curve] and inconclusive: 44.7 µM [inhibitor, single point]"
same,Potency,[9],inactive
same,Potency,[10],"inconclusive: 15.8 µM [cytotoxic, partial curve]"
same,Potency,[2],"inconclusive: 2.24 µM [inhibitor, partial curve, poor fit] and inconclusive: 5.62 µM [inhibitor, partial curve, poor fit] and inconclusive: 10 µM [inhibitor, partial curve, poor fit]"
same,Potency,Papain (Carica papaya),inactive
C[C@H](c1ccc(F)cc1CCCC(=O)O)N(c1cc(F)ccc1F)S(=O)(=O)c1ccc(Cl)cc1,Potency,[14],inactive
same,Potency,[8],active: 8.49 µM
O=C1CCC(N2C(=O)c3ccccc3C2=O)C(=O)N1 (stereo not drawn),Potency,[11],inactive
same,Potency,[14],"inconclusive: 50.1 µM [inhibitor, partial curve, poor fit]"
same,Potency,[2],"inconclusive: 12.6 µM [inhibitor, partial curve, poor fit] and inconclusive: 4.7 nM [inhibitor, full curve, poor fit] and inconclusive: 2 µM [inhibitor, full curve, poor fit]"
same,Potency,[7],"inconclusive: 0.001 µM [falling, single point]"
same,Potency,[8],inactive
